Results reported in patent US20220073613A1, “ACTIVATABLE MASKED ANTI-CTLA4 BINDING PROTEINS” (Xilio Development, Inc., priority 2018, published 2022).

Assays:
[1] = biological target: T1, interaction of CTLA4 with its ligands, CD80 and CD86 (Homo sapiens, UniProt P16410); assay: CTLA4 blockade bioassay; format: cell-based
T1 construct: expressed in transfected cells; host or cells: CTLA4 expressing Jurkat cells; CD80/CD86 expressing Raji cells
Method: The ability of anti-CTLA4 antibodies, including masked anti-CTLA4 antibodies, to block the interaction of CTLA4 with its ligands, CD80 and CD86, was tested using a CTLA4 blockade bioassay. Antibodies were diluted in pre-warmed complete medium. CTLA4 expressing Jurkat cells (effector cells) were thawed and transferred to a conical tube containing complete medium. The cells were mixed and counted. Cells were added to each well of a 96 well plate (Corning, #3917). Diluted antibodies were added to the appropriate wells and tested in duplicate. The plate was gently mixed and incubated at 37° C. for 15 minutes. APC cells (CD80/CD86 expressing Raji cells) were thawed and transferred to a conical tube containing complete medium. The cells were gently mixed, counted, and immediately dispensed to each well and mixed gently. The plate was covered and kept at 37° C. for 6 hours. Bio-Glo reagent was gently mixed by inversion and the bottle was kept at room temperature. After six hours of incubation the assay plate was removed from the incubator and kept at room temperature for ten minutes. Bio-Glo reagent was added to the wells and the plate was incubated at room temperature for five-fifteen minutes. The plate was then read with a luminometer and analyzed using GraphPad Prism. Statistical analysis of fold changes in the ability to block binding was performed using one-way ANOVA comparisons. […]

MB49 tumors = assay: MB49 murine bladder tumor model, efficacy and pharmacodynamics; format: in vivo, C57/BL6-huCTLA4 mice
Method: Efficacy and pharmacodynamics (PD) of anti-CTLA4 antibodies were assessed using the MB49 murine bladder tumor model. Efficacy was assessed by administering each test antibody (RSV-m control antibody, ipilimumab, Antibody 2-6, Antibody 2-14, and Antibody 2-15) and then assessing tumor volume and body weight. The anti-RSV control antibody contains S239D and I332E mutations (RSV-m control antibody). Peripheral immunophenotyping was also carried out on day 5, which assessed the percentage of CD4+Ki67+ cells and the percentage of CD4+ICOS+ cells in the peripheral blood on day 5 following administration. As used herein, dosing in mg/kg is also referred to as “mpk.” MB49 cells were inoculated subcutaneously into C57/BL6-huCTLA4 mice. Treatment started when the tumors reached approximately 350 mm^3. A One-way ANOVA with Dunnett's post-test was performed to determine the statistical significance of treatment vs control (RSV-m control). *P<0.05; **P<0.01; ***P<0.001; ****P<0.0001.
Pharmacodynamics is assessed by administering antibody to each of five cohorts of mice, with dosing (mg/kg) as shown in Table 16. Immunophenotyping among other readouts are performed in the tumor, liver, spleen, and blood. T cells are assessed by measuring Foxp3+CD25+ cells as a percentage of CD4+ cells, and CD8+ cells are measured as a percentage of CD45+ cells. Cleavage and drug levels in tumors, liver, kidney, spleen, and plasma is also assessed.

[2] = system: healthy monkey (cynomolgus) tissues and plasma; assay: Ex vivo cleavage in healthy monkey tissues and plasma, CTLA4 ELISA; format: in vitro ADME
Method: In another study, ex vivo cleavage of healthy monkey (cynomolgus) tissues (N=2) and plasma (N=3) was assessed using a CTLA4 ELISA assay. Tissues tested included kidney, spleen, liver, bladder, skin, colon, and lung.

[3] = In vivo cleavage in plasma of healthy cynomolgus monkeys, CE and MS
Method: In another study, in vivo cleavage was assessed in the plasma of healthy cynomolgus monkeys at 1 hour, 1 day, and 7 days after administration. Cleavage was identified by capillary electrophoresis (CE) and by mass spectrometry (MS). The abundance of cleavage products at expected cleavage site within Antibody 2-14 (VPLS**LY) was calculated. Cleavage at another site (VPLSLY**SGG) was also calculated for comparison. The abundance of cleavage for Antibody 2-16 was also calculated.

[4] = system: human tumor tissue and normal tissue adjacent to tumor tissue (NAT); assay: Anti-CTLA4 ELISA cleavage analysis with human tumor tissue and NAT (CHTN); format: in vitro ADME
Method: Anti-CTLA4 ELISA analyses were performed using human tumor tissue and normal tissue adjacent to tumor tissue (NAT) obtained from the Cooperative Human Tissue Network (CHTN). The antibodies tested include Antibody 2-14, Antibody 2-16, and Antibody 1334. […] The percentage of molecule cleaved by the tumor is slightly higher for Antibody 2-16 (26%) than Antibody 2-14 (22%). The overall percentage of molecule cleaved by the NAT is higher for Antibody 2-14 (24%) than Antibody 2-16 (7%).

[5] = Pharmacokinetics in cynomolgus monkeys; format: in vivo; conditions: 10 mg/kg intravenous dose

T1 sequence (P16410 36-223): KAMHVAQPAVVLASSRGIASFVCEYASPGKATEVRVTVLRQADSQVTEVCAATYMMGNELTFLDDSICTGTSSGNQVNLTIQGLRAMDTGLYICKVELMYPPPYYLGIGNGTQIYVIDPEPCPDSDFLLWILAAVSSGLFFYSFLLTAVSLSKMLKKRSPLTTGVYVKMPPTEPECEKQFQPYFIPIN

B1: Antibody 2-14: masked Antibody 2-6: mask CPGKGLPSC, cleavable peptide VPLSLY; SEQ ID NO: 358 and 421 (protein)
light: ACPGKGLPSCGGGSSGGSGVPLSLYSGGEIVLTQSPDFQSVTPKEKVTITCSANSALSYMYWYQQKPDQSPKLWVHGTSNLASGVPSRFSGSGSGTDFTLTINSLEAEDAATYYCHHWSNTQWTFGGGTKVEIKRTVAAPSVFIFPPSDEQLKSGTASVVCLLNNFYPREAKVQWKVDNALQSGNSQESVTEQDSKDSTYSLSSTLTLSKADYEKHKVYACEVTHQGLSSPVTKSFNRGEC
heavy: QVQLVQSGAEVKKPGSSVKVSCKASGYTFTNYFMNWVRQAPGQGLEWMGRVDPEQGRADYAEKFKKRVTITADKSTSTAYMELSSLRSEDTAVYYCARRAMDNYGFAYWGQGTLVTVSS[human IgG1 constant region with changes left out here]
- ability to block the binding of CTLA4 to its ligands ([1]; activated form (prior exposure to protease)): demonstrated an ability to effectively block
- ability to block the binding of CTLA4 to its ligands ([1]; non-activated form (absence of protease)): did not demonstrate an ability to effectively block
- CD8/Treg ratios in tumors (MB49 tumors; 3 mg/kg, day 7): highest CD8/Treg ratios
- tumor weight (MB49 tumors; 3 mg/kg, day 7): lowest tumor weights
- T-cell activation (CD4+Ki67+ and CD4+ICOS+ cells in peripheral blood) (MB49 tumors; day 5, 10 mg/kg versus ipilimumab at 3 mg/kg): lower T-cell activation
- Regulatory T cell depletion and CD8+ T cell activation in the tumor microenvironment (MB49 tumors; mouse, in vivo): is observed
- percentage of cleavage ([2]; cyno bladder): 37%
- percentage of cleavage ([2]; cyno colon): 36%
- percentage of cleavage ([2]; cyno lung): 88%
- percentage of cleavage ([2]; cyno plasma): 4%
- abundance of cleavage product VPLS**LY ([3]; 1 hour): 0%
- abundance of cleavage product VPLSLY**SGG ([3]; 1 hour): 0%
- abundance of the intact (uncleaved) antibody ([3]; 1 hour): 100%
- cleavage by capillary electrophoresis (CE) ([3]; 1 hour, all three subjects): 0%
- cleavage by mass spectrometry (MS) ([3]; 1 hour, subject #3): 0%
- abundance of cleavage product VPLS**LY ([3]; 24 hours): 17%
- abundance of cleavage product VPLSLY**SGG ([3]; 24 hours): 1%
- abundance of the intact (uncleaved) antibody ([3]; 24 hours): 82.1%
- abundance of cleavage product VPLS**LY ([3]; 72 hours): 32.3%
- abundance of cleavage product VPLSLY**SGG ([3]; 72 hours): 0%
- abundance of the intact (uncleaved) antibody ([3]; 72 hours): 67.7%
- cleavage by capillary electrophoresis (CE) ([3]; day 1, subjects #1, #3, #5): 8% and 6% and 4%
- cleavage by mass spectrometry (MS) ([3]; day 7, subject #3): 32.3%
- cleavage by capillary electrophoresis (CE) ([3]; day 7, subjects #1, #3, #5): 35% and 32% and 31%
- Frequency of cleavage ([4]; Bladder, NAT): 3/3
- Percent (%) of cleavage ([4]; Bladder, NAT): 56%
- Frequency of cleavage ([4]; Bladder, Tumor): 4/5
- Percent (%) of cleavage ([4]; Bladder, Tumor): 7%
- Frequency of cleavage ([4]; Breast, NAT): 3/4
- Percent (%) of cleavage ([4]; Breast, NAT): 64%
- Frequency of cleavage ([4]; Breast, Tumor): 3/4
- Percent (%) of cleavage ([4]; Breast, Tumor): 37%
- Frequency of cleavage ([4]; Colon, NAT): 8/8
- Percent (%) of cleavage ([4]; Colon, NAT): 34%
- Frequency of cleavage ([4]; Colon, Tumor): 7/7
- Percent (%) of cleavage ([4]; Colon, Tumor): 46%
- Frequency of cleavage ([4]; Liver, NAT): 4/5
- Percent (%) of cleavage ([4]; Liver, NAT): 28%
- Frequency of cleavage ([4]; Liver, Tumor): 3/6
- Percent (%) of cleavage ([4]; Liver, Tumor): 2%
- Frequency of cleavage ([4]; Lung, NAT): 5/6
- Percent (%) of cleavage ([4]; Lung, NAT): 3%
- Frequency of cleavage ([4]; Lung, Tumor): 4/7
- Percent (%) of cleavage ([4]; Lung, Tumor): 4%
- Frequency of cleavage ([4]; Lymph node, Tumor): 1/1
- Percent (%) of cleavage ([4]; Lymph node, Tumor): 2%
- Frequency of cleavage ([4]; Melanoma, NAT): 1/1
- Percent (%) of cleavage ([4]; Melanoma, NAT): 100%
- Frequency of cleavage ([4]; Melanoma, Tumor): 3/3
- Frequency of cleavage ([4]; Ovary, NAT): 1/1
- Percent (%) of cleavage ([4]; Ovary, NAT): 4%
- Frequency of cleavage ([4]; Ovary, Tumor): 4/9
- Percent (%) of cleavage ([4]; Ovary, Tumor): 5%
- Frequency of cleavage ([4]; Renal cell, NAT): 19/25
- Frequency of cleavage ([4]; Renal cell, Tumor): 15/26
- Percent (%) of cleavage ([4]; Renal cell, Tumor): 25%
- Frequency of cleavage, as percent ([4]; Total, NAT): 83%
- Percent (%) of cleavage ([4]; Total, NAT): 24%
- Frequency of cleavage ([4]; Total, NAT (samples cleaved/samples)): 44/53
- Frequency of cleavage, as percent ([4]; Total, Tumor): 65%
- Percent (%) of cleavage ([4]; Total, Tumor): 22%
- Frequency of cleavage ([4]; Total, Tumor (samples cleaved/samples)): 44/68
- pharmacokinetics (level of antibody in plasma over 14 days) [5]: favorable pharmacokinetics

Where “and” joins values, the source holds several entries; their conditions need not be identical. Equal values may be shown once.
